US20090286723A1

Target: T1, amylin receptors (rat nucleus accumbens membranes) (rat)
T1 sequence 1: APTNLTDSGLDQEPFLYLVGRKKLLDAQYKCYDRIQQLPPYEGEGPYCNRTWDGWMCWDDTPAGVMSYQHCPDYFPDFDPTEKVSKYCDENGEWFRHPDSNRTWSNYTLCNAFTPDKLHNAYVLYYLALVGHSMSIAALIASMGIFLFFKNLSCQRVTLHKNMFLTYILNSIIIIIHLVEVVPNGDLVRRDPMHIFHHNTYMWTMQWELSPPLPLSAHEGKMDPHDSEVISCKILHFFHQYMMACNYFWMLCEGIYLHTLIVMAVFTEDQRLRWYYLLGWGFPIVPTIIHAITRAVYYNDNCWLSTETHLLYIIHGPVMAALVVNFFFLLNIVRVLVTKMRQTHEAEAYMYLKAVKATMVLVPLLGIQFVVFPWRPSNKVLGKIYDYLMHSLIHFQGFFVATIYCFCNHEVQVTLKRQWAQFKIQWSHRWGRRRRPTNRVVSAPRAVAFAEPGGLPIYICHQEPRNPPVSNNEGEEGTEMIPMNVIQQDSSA
T1 sequence 2: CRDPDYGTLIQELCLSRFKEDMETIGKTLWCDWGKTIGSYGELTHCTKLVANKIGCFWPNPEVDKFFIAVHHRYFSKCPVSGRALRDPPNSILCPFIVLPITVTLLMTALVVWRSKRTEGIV
Assay: amylin RBA

Q: How did the IC50 turn out when “[Ser117, dLeu119]leptin(116-122)-Amylin(1-7)-[^11,18Arg]sCT(8-27)-Amylin(33-37) (sequence not shown) (peptide; modification not given)” was run?
A: Its IC50 is 0.04 nM.
